# Laboratory results published in the supplement of paper PMC12645437, “Orthogonal IMiD-Degron Pairs Induce Selective Protein Degradation in Cells” (ACS Chemical Biology, 2025).
# This is one part of the list.
# B1: Q9UKT9 (peptide)
# chain: FNCPICGRHFTQKGNLLRHIKL
# B2: Q9UKT9 (peptide)
# chain: FGCNQCGHLFTQKGNLLRHIKL
# B3: Q9UKT9 (peptide)
# chain: FYCEICGRAFTQKGNLLRHIKL
# B4: Q9UKT9 (peptide)
# chain: FMCDICGAPFTQKGNLLRHIKL
# B5: Q9UKT9 (peptide)
# chain: FKCNQCGAIFTQKGNLLRHIKL
# B6: Q9UKT9 (peptide)
# chain: FICNQCGRMFTQKGNLLRHIKL
# B7: Q9UKT9 (peptide)
# chain: FWCPVCGAKFTQKGNLLRHIKL
# B8: Q9UKT9 (peptide)
# chain: FYCPICGRVFTQKGNLLRHIKL
# B9: Q9UKT9 (peptide)
# chain: FQCNQCGAEFTQKGNLLRHIKL
# B10: Q9UKT9 (peptide)
# chain: FHCEQCGAGFTQKGNLLRHIKL
# B11: Q9UKT9 (peptide)
# chain: FGCEICGAQFTQKGNLLRHIKL
# B12: Q9UKT9 (peptide)
# chain: FICPQCGAEFTQKGNLLRHIKL
# B13: Q9UKT9 (peptide)
# chain: FCCEICGHIFTQKGNLLRHIKL
# B14: Q9UKT9 (peptide)
# chain: FGCNQCGHAFTQKGNLLRHIKL
# Target: no compound (DMSO)
# Assay: log2 fold change of degron read counts, EGFP-low vs EGFP+ sorted cells; higher = lower degron-EGFP level without compound (poor expression or instability)
# Conditions: compound: DMSO control; 18 h
# 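Further: jurkat cells carrying a lentiviral library of mutant zinc finger degrons fused to EGFP plus mCherry, mCherry+ cells FACS sorted, degron abundance counted by next-generation sequencing.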
row,Sequence,log2 fold change of degron read counts
1,B1,-0.435
2,B2,1.27
3,B3,-1.31
4,B4,-1.06
5,B5,-0.467
6,B6,-0.534
7,B7,-0.321
8,B8,-1.63
9,B9,-2.42
10,B10,-2.43
11,B11,-1.81
12,B12,-2.08
13,B13,-0.468
14,B14,0.898
